The subject of this series is ATP. The experiment in a line: switch fluorescence ratio, 500 uM ATP over buffer (Cy3 cluster intensity, sum of 5 cycles each) (fold (ratio)); higher = stronger signal-on switching upon ATP binding; sequences stand for … in TCGTCGGCAGCGTCAGATGTGTATAAGAGACAGTTTTTTTTTTTTTTTTTTTTTTTTT…TC. The conditions noted are these: aptamer strand: ATP DNA aptamer (quencher-CACCTGGGGGAGTATTGCGGAGGAAGG + anchor), 100 nM annealed; ATP concentration: 500 uM; one replicate. A digest of the protocol:
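Cy3-labelled switching-strand clusters on a modified Illumina MiSeq flow-cell were annealed to 100 nM quencher-labelled ATP aptamer, imaged in selection buffer, then imaged after 15 min with 500 uM ATP at 22 °C. Five buffer/ATP cycles ran, with NaOH stripping and re-annealing between them. The fluorescence ratio is summed target-cycle over summed buffer-cycle Cy3 intensity per cluster, averaged per switch-domain sequence. Clusters outside 100-1000 RFU were excluded.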

This is an account of results in the supplement of paper PMC10126150.

Sequences with one replicate were seen in a single cluster, so their values are uncertain.
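Also: ATP exposure 15 min at 22 °C before imaging.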

As to TAATTTAA, the switch fluorescence ratio came out at 1.01. Take AAGTATCGCG: the switch fluorescence ratio worked out at 0.994.

With TGTTCCGTTT, the switch fluorescence ratio was found to be 1.02. With AACAGAGAC, the switch fluorescence ratio was 1.03. As to GAAATTCAGA, the switch fluorescence ratio was determined as 1. As to AAAGGTATAC, the switch fluorescence ratio amounted to 2.48. For GAGCAGCAAA, the switch fluorescence ratio is 0.996. As for ACTCGAGTT, the switch fluorescence ratio is 1. On to CGGTCACGGT, for which the switch fluorescence ratio was found to be 1.01. For AAGAGTGGAT the value was 1.02; for TATGCTAAAG, 0.988; for TCGGGTGATT, 1.04. TTCTCGGATC: the switch fluorescence ratio amounted to 1.01.

For the sequence TCCGGGATAC, the switch fluorescence ratio is 4.01. For TGTAAGTATG the value was 0.996; for TGGTGCTTTC, 0.987; for GGGTACCCTG, 0.986. In the case of ATGGAAGAAT, the switch fluorescence ratio worked out at 0.99. As for AGCCTCCACT, the switch fluorescence ratio was 1.04. For ACTCCCACGA the value was 1.69; for GTAGGATATC, 1.01. Take TGTTGGAGCT: the switch fluorescence ratio turned out to be 1.02. As to CAAAAACACA, the switch fluorescence ratio came out at 1.19. As for TAGCCTTGCA, the switch fluorescence ratio was 0.974. In the case of AGGTGGTACG, the switch fluorescence ratio came out at 0.985. With ACTCGGAGGT, the switch fluorescence ratio is 1.01. For AACGGGGCCC, the switch fluorescence ratio is 0.981. The result for CCTGGCTAAA reads 1.14; that for AACGATGTAT, 0.942; that for GTCGGCCGGG, 1.02.

With AGTTGCTACT, the switch fluorescence ratio was 1.02. The result for CAGAGAGTAT reads 1.01. As for AACGGTGTCA, the switch fluorescence ratio was 0.979. Regarding AATATAAATT, the switch fluorescence ratio is 1.02. CTCCGGACTT: the switch fluorescence ratio amounted to 2.48. As to ATGTAAACTT, the switch fluorescence ratio was determined as 0.987. On to CGCTAATCCG, for which the switch fluorescence ratio turned out to be 1.04.

With CCCGATGGGG, the switch fluorescence ratio is 1.04. On to TAACCATGGA, for which the switch fluorescence ratio was 0.992. As for CCCCATGGC, the switch fluorescence ratio came to 1.36.

CACGGTTGC: the switch fluorescence ratio worked out at 0.977. For CGGGATAGT the value was 1.03. As for AGCCGGACTC, the switch fluorescence ratio turned out to be 1.04. Turning to ACTCCTGGGC, the switch fluorescence ratio came out at 1.43.

With CCAGGTGCCC, the switch fluorescence ratio was found to be 3.41.

Consider CCTTAGTTCC, for which the switch fluorescence ratio stood at 1.03. For CTGAAACTAT, the switch fluorescence ratio stood at 0.951. For the sequence ACCGCGGTAT, the switch fluorescence ratio came to 1.03. Turning to TTCTCTTCGC, the switch fluorescence ratio worked out at 1.03.

In the case of AAATCTACAT, the switch fluorescence ratio amounted to 0.992.

Turning to GCGACGCTA, the switch fluorescence ratio was 2.98. Turning to GGAAATTTCG, the switch fluorescence ratio turned out to be 0.95.

Regarding GCTGGACTGC, the switch fluorescence ratio worked out at 0.89.

GAAGAACTTT: the switch fluorescence ratio is 1.01. ACTCAAGAAA: the switch fluorescence ratio was found to be 1.1. Turning to TTAAAACAAT, the switch fluorescence ratio turned out to be 0.969. In the case of GTGTGCTTCT, the switch fluorescence ratio is 0.981. The result for TGATTCTCAC reads 0.989. For the sequence TAAATTCCGT, the switch fluorescence ratio was found to be 0.985. For TGATCCTACC, the switch fluorescence ratio was 1.26. Turning to AAGGCAATAT, the switch fluorescence ratio is 3.35.

As for GTAACAATAT, the switch fluorescence ratio came to 1.17. For CGCGATTCTT, the switch fluorescence ratio turned out to be 1.05. For ATAGTGAGGG the value was 0.955; for CTCCCTATCA, 1.1; for GGCAAGGTGC, 1.09. Turning to TGTCTACGCA, the switch fluorescence ratio turned out to be 1.7.

Take AAGGCCTCTA: the switch fluorescence ratio amounted to 1.01. Turning to AGCAACCGGC, the switch fluorescence ratio is 1.04.

AGCACTGGAC: the switch fluorescence ratio turned out to be 1.36. As for CCGATAAAAC, the switch fluorescence ratio stood at 2.31. For GGTCGCAAAA the value was 0.989; for CATTGGTCTG, 0.975; for TGTGCTAAAT, 0.972. On to TCCGGCTCCC, for which the switch fluorescence ratio is 2.01.

In the case of GGTAGAAAGT, the switch fluorescence ratio was 0.957. With ATGTTCGTGC, the switch fluorescence ratio came to 1.02.

As for TCTGCCCACA, the switch fluorescence ratio was 1.39. CGTGATAAAA: the switch fluorescence ratio is 0.999. ATAACGCCAG: the switch fluorescence ratio worked out at 1.01. The result for CCCGAGGAGA reads 1.03; that for TGGGGCCTCT, 1.02. For TTGCAAGGCA, the switch fluorescence ratio turned out to be 1.01.

On to TCACCGACTT, for which the switch fluorescence ratio is 1.13. In the case of TGCAATCCAT, the switch fluorescence ratio worked out at 0.995. As for AGGGTACATT, the switch fluorescence ratio stood at 1.07. In the case of TTGGGATAAG, the switch fluorescence ratio came to 1. With CGCCACTTTC, the switch fluorescence ratio is 1.19. For the sequence AGGTAGAGC, the switch fluorescence ratio stood at 0.969. In the case of CGGTATACCT, the switch fluorescence ratio was found to be 1.06.

TTTCGTGTTC: the switch fluorescence ratio was determined as 1. As for ACTTGAACTA, the switch fluorescence ratio turned out to be 1.14. The result for TCAGTCACAA reads 0.997; that for GCTTAAATGT, 0.974; that for TCCAGGAAAA, 0.984. Take GCCTTTACGT: the switch fluorescence ratio was found to be 1.03. Consider TGTCTTCCGT, for which the switch fluorescence ratio was determined as 1.08. Consider ACATGCGGGA, for which the switch fluorescence ratio turned out to be 0.883. As to CCCTTAAACT, the switch fluorescence ratio was 1.04. CGGGTGTCGT: the switch fluorescence ratio was 1.02. TTCGGGCT: the switch fluorescence ratio was determined as 1.03. For AATTGCTTCT, the switch fluorescence ratio amounted to 0.99. For TGAAGTACGG, the switch fluorescence ratio was 1.27.

Take GCATCCTTCA: the switch fluorescence ratio was determined as 1.45. As for TTTCGTCTTC, the switch fluorescence ratio is 0.984. Consider ATTCCCAGTC, for which the switch fluorescence ratio is 1.05. The result for CGGGCCCTAC reads 0.997; that for TCAGTATGAT, 1.03; that for GGCATCGGGG, 1.02. For CGATAAAGAA, the switch fluorescence ratio worked out at 1.03. As to ACGTTGTTAG, the switch fluorescence ratio was 1.03. The result for CATCGGTGCC reads 0.932; that for CGAGCTAGTT, 1.01; that for ACCTGGGGGT, 1.97. With TTACGGACAC, the switch fluorescence ratio was determined as 1.23.

Regarding CCATGGTGTT, the switch fluorescence ratio was 1.63.

On to ATCTGTTGGT, for which the switch fluorescence ratio is 1.02. The result for CGGCTGAACG reads 1.01. Turning to GGGTTAAATC, the switch fluorescence ratio was 0.994.

Take TATGAGCGTC: the switch fluorescence ratio was 1.02.
